The results in this text go back to patent US20220411494A1 (ALAMAB THERAPEUTICS, published 2022).

What is called Kd is a measure of binding affinity in units of concentration. One may read the koff as the first-order rate constant of dissociation. High values mean fast dissociation, low ones slow dissociation. By kon is commonly meant the second-order rate constant of association. A high value points to fast association.

The target in assay [1] is T1, CD64 (UniProt P12314 16-288, limits assumed).
T1 construct: The construct is not described; also called FCRI
Description: SPR Biacore 8K, CD64 captured by anti-His antibody, antibody as analyte, 1:1 binding fit. The procedure: (§1) The activator was prepared by mixing 400 mM EDC and 100 mM NHS immediately prior to injection. The CM5 sensor chip was activated for 420 s with the mixture. 30 μg/mL of THE™ His tag antibody in 10 mM NaAc (pH 4.5) was then injected to channels 1-8 for 400 s at a flow rate of 30 μL/min. The chip was deactivated by 1 M ethanolamine-HCl (GE).
(§2) 2 μg/mL CD64 in running buffer (1×HBS-EP+) was injected to Fc2 of channel 1-4 at a flow rate of 10 μL/min for 30 s. 6 concentrations (40, 20, 10, 5, 2.5 and 1.25 nM) of analyte Ab #C, Ab #G and running buffer were injected orderly to Fc1-Fc2 of channel 1-4 at a flow rate of 30 μL/min for an association phase of 180, followed by 400 dissociation. Repeat 6 cycles of capturing ligand and running analyte according to analyte concentrations in ascending order. 10 mM glycine pH 1.5 as regeneration buffer was injected following every dissociation phase. 2 μg/mL CD64 in running buffer (1×HBS-EP+) was injected to Fc2 of channel 1-6 at a flow rate of 10 μL/min for 30 s. […] Repeat 8 cycles of capturing ligand and running analyte according to analyte concentrations in ascending order. 10 mM glycine pH 1.5 as regeneration buffer was injected following every dissociation phase.
Surface channels Fc1 without capturing ligand was used as control surface for reference subtraction. Final data of each interaction was deducted from reference channel and buffer channel data. The experimental data of Ab #C, Ab #G binding to CD64 was fitted by 1:1 binding mode. The 10240 nM curves of analyte Ab #K, Ab #O, Ab #S were removed to allow a better fit.
In general terms: SPR reads the build-up and loss of mass on a sensor chip optically.

For assay [2], the target named is T2, FcγRIIa (UniProt P12318 36-218, limits assumed).
T2 construct: It was captured through an anti-His tag antibody; The construct is not described; also called FCRIIa
T2 sequence (looked up): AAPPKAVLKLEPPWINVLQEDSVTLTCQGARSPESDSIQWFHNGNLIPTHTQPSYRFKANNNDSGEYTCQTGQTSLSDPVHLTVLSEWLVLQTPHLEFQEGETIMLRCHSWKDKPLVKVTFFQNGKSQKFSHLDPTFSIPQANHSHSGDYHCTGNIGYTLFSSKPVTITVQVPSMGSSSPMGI
Description: SPR Biacore 8K, His-captured receptor, antibody as analyte, steady state affinity. The procedure:
as §1
(§3) 1 μg/mL FcγRIIa, FcγRIIb, FcγRIIIa, or FcγRIIIb in running buffer (1×HBS-EP+) was injected to Fc2 of channel 1-8 at a flow rate of 10 μL/min for 15 s. Analytes were injected to channel 1-8 respectively. A series of analyte concentrations (seeing Table 3 below) were monitored at a flow rate of 30 μL/min for an association phase of 60 s, followed by 90 s dissociation. 10 mM glycine pH 1.5 as regeneration buffer was injected following every dissociation phase.
(§4) Surface channels Fc1 without capturing ligand was used as control surface for reference subtraction. Final data of each interaction was deducted from reference channel and buffer channel data. The experimental data of antibodies binding to FcγRIIa, FcγRIIb, FcγRIIIa, and FcγRIIIb was fitted by steady state affinity mode and shown in Table 4 below.

For assay [3], the target named is T3, FcγRIIb (UniProt P31994 46-217, limits assumed).
T3 construct: It was captured through an anti-His tag antibody; The construct is not described; also called FCRIIb
T3 sequence (looked up): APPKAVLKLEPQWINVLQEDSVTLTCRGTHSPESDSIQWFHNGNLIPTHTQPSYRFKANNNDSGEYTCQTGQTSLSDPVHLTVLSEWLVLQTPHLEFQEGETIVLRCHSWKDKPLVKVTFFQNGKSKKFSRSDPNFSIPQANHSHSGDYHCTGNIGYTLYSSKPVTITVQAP
The assay is described as above. The procedure:
as §1, §3, §4

In assay [4] the target is C1q (UniProt P02745; P02746; P02747). Description: ELISA, antibody coated at 3 µg/mL, C1q titrated. The procedure: Plates (Nunc) were coated with antibodies at 3 μg/mL overnight at 4° C. After blocking and washing, C1q was half-log titrated in blocking buffer (600, 189.75, 60.01, 18.98, 6.00, 1.90, 0.60, 0.19, 0.06 and 0.02 μg/mL) and incubated at room temperature for 2 h. The plates were then washed and subsequently incubated with secondary antibody Sheep anti-human C1q Ab-HRP for 1 h. After washing, TMB substrate was added and the interaction was stopped by 2M HCl.
On the technique in general: ELISA stands for enzyme-linked immunosorbent assay.

Assay [5] deals with T4, human FcRn (human, UniProt P55899 fragment; P61769 fragment).
T4 construct: The construct is not described
T4 sequence (P55899 24-297 limits assumed, chain 1 of 2): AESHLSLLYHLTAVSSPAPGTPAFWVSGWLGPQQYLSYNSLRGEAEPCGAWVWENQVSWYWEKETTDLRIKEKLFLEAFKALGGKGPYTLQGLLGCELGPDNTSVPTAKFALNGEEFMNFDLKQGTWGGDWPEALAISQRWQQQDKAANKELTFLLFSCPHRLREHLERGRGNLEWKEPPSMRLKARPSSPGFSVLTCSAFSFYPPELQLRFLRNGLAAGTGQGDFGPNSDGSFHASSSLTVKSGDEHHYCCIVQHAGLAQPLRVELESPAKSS
T4 sequence (P61769 21-119 limits assumed, chain 2 of 2, further chain): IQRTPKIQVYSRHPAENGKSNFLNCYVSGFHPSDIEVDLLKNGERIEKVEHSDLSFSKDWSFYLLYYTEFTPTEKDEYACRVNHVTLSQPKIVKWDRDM
Description: SPR Biacore 8K, antibody immobilised on CM5, FcRn as analyte, pH 6.0, steady state affinity. The procedure: Buffer of human FcRn was exchanged to running buffer (50 mM Na₂HPO₄, 50 mM NaH₂PO₄, 150 mM NaCl, 0.05% Tween20, pH 6.0) using desalting column according to the instruction manual. The concentration was determined by Nanodrop.
Analyte FcRn was injected to channel 1-8 respectively. 8 concentrations of FcRn (0, 93.75, 187.5, 375, 750, 1500, 3000 and 6000 nM) were monitored at a flow rate of 30 μL/min for an association phase of 60 s, followed by 90 s dissociation. After each cycle of interaction analysis, the sensor chip surface was regenerated with 1×PBS (pH 7.4) at a flow rate of 10 μL/min for 30 s.
Surface channels Fc1 without immobilized antibodies were used as control surface for reference subtraction. Final data of each interaction was deducted from reference channel and buffer channel data.

Assay [6] has as its target T1, CD64. Description: SPR Biacore 8K, CD64 captured by anti-His antibody, antibody as analyte, steady state affinity. The procedure:
as §1, §2
Surface channels Fc1 without capturing ligand was used as control surface for reference subtraction. Final data of each interaction was deducted from reference channel and buffer channel data. […]

T1 sequence (P12314 16-288 limits assumed): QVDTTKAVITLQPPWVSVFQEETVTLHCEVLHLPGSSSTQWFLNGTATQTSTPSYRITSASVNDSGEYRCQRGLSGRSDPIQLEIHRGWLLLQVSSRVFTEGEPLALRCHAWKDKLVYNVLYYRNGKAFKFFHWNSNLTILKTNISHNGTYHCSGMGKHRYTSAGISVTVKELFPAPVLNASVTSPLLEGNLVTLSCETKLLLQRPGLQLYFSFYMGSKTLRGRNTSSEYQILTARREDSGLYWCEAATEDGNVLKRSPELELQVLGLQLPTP
Chain of C1q (P02745 23-245 limits assumed, chain 1 of 3): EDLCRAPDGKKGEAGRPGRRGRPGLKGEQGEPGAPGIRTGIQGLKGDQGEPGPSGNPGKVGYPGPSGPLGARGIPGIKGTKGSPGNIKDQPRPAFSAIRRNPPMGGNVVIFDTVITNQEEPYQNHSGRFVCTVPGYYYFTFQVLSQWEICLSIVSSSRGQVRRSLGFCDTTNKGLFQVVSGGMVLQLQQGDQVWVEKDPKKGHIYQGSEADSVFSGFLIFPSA
Chain of C1q (P02746 28-253 limits assumed, chain 2 of 3, further chain): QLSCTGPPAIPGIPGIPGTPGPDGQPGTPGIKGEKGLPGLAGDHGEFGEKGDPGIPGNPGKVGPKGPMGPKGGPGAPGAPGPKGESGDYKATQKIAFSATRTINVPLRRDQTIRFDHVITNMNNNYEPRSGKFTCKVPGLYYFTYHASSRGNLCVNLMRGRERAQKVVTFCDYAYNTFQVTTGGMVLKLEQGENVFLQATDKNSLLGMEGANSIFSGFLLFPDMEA
Chain of C1q (P02747 29-245 limits assumed, chain 3 of 3, further chain): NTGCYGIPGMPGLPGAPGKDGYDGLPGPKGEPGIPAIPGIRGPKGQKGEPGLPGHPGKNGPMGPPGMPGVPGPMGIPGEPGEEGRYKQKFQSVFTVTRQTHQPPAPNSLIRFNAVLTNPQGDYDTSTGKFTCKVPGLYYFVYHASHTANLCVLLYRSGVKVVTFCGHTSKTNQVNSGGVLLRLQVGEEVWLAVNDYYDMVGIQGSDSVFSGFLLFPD

B1: Ab#G (antibody, human IgG4 S228P, kappa)
heavy: EVQLVQSGAEVKKPGASVKVSCKASGYTFTSYYMYWVRQAPGQGLEWIGGINPSNAGTNFNEKFKNRATLTVDKSTSTAYMELSSLRSEDTAVYYCTREGNPYYTMNYWGQGTLVTVSSASTKGPSVFPLAPCSRSTSESTAALGCLVKDYFPEPVTVSWNSGALTSGVHTFPAVLQSSGLYSLSSVVTVPSSSLGTKTYTCNVDHKPSNTKVDKRV[… human IgG4 Fc with S228P (EU numbers) …]
light: DIVMTQSPDSLAVSLGERATISCKSSQSLLNSGNQKTYLAWYQQKPGQPPKLLIYGASTRESGVPDRFSGSGSGTDFTLTISSLQAEDVAVYYCQNDHSYPFTFGQGTKLEIKRTVAAPSVFIFPPSDEQLKSGTASVVCLLNNFYPREAKVQWKVDNALQSGNSQESVTEQDSKDSTYSLSSTLTLSKADYEKHKVYACEVTHQGLSSPVTKSFNRGEC
notes: HCDR2 is printed with 'Na' (the NG to NA change)
As for B1, the Kd was 4.65 nM in assay [1], 17900 nM in assay [2], 13200 nM in assay [3] and 2390 nM in assay [5]. In assay [1], this molecule yielded a koff of 0.00223 s⁻¹. For the same molecule, the kon in assay [1] worked out at 480000 M⁻¹ s⁻¹. The binding result in assay [4] is given as “no binding”.

B2: Ab#S (antibody, human IgG4 S228P, kappa, F234A L235A)
heavy: EVQLVQSGAEVKKPGASVKVSCKASGYTFTSYYMYWVRQAPGQGLEWIGGINPSNAGTNFNEKFKNRATLTVDKSTSTAYMELSSLRSEDTAVYYCTREGNPYYTMNYWGQGTLVTVSSASTKGPSVFPLAPCSRSTSESTAALGCLVKDYFPEPVTVSWNSGALTSGVHTFPAVLQSSGLYSLSSVVTVPSSSLGTKTYTCNVDHKPSNTKVDKRV[… human IgG4 Fc with S228P F234A L235A (EU numbers) …]
light: B1 light
Consider B2, for which the binding result in assay [4] is reported as “no binding”. Besides, the Kd came to 2430 nM in assay [5] and 2610 nM in assay [6].
